# Hit rate of the full screen: of about 150,000 compounds, about 540 (0.36%) showed an effect of 50% or more. The list shows a part of the results.
# System: Plasmodium falciparum
# Test: Primary screen in NF54 nanoGlo assay, in single point, at 2uM, 72h; a lower Z score goes with more inhibition
# Type: functional, Erythrocyte
# Conditions: timepoint 72 hour
SMILES,% Inhibition,Z score
Cc1cc(S(=O)(=O)NC[C@@]2(C)CCC(=O)N2)c(C)o1,-8%,1.1
Cc1ccc(-n2nc(O[C@@H](C)C(=O)Nc3ccc(F)c(F)c3)ccc2=O)cc1C,-24%,3.78
Cc1cnc(C[C@H]2CCCN(C(=O)c3ccoc3)C2)n1CC1CC1,4%,-0.6
COc1ccccc1CN1CC[C@H]2CC(=O)Nc3cc(C(C)C)ccc3OCC[C@H]2C1,11%,-1.68
CCC(C)(C)C#Cc1ccc(C(=O)NC[C@H](O)CO)nc1,-6%,0.86
Cc1ccc(C(=O)N2CCc3cc(Cl)c(Cl)cc3[C@@H]2C)c(=O)[nH]1,0%,-0.04
Cc1ccc2c(c1)N(CC(=O)NCc1ccccc1Cl)C=NS2(=O)=O,-21%,2.44
O=C(NCc1ccccc1)[C@@H]1COC2(CCN(C(=O)c3ccc4c(c3)OCO4)CC2)N1C(=O)c1ccco1,-14%,1.21
CC1CCN(CC[C@@H]2CC[C@H](O)[C@@H](C(=O)Nc3ccccc3)O2)CC1,-11%,1.68
Cc1nc(NC(=O)CS(=O)(=O)N(C)C)n(C)n1,4%,-0.51
NC(=O)c1cccc(CN[C@H](c2ccc(Cl)cc2)C2CCCC2)c1,-4%,0.58
Cc1nn(C)c(C)c1CCc1nc(-c2ccco2)n[nH]1,2%,-0.44
CCS(=O)(=O)N(C)C1CCN(C(=O)[C@H](C)N(C)CC(F)(F)F)CC1,-2%,0.3
COc1cccc2c1CC[C@H](NCc1nc(C(F)(F)F)cs1)C2,-17%,1.75
COc1ccc(Cl)cc1NC(=O)Cc1c(C)nc2nc(-c3ccccc3C)nn2c1C,30%,-0.56
NC(=O)C[C@H](NCc1cccs1)C1CCCCC1,-14%,1.56
C1CCC([C@@H]2CCCCCN2Cc2nnc3n2CCCC3)CC1,8%,-1.37
NC(=C(C(=O)c1ccccc1)C(=O)c1ccccc1)c1nonc1N,-7%,0.91
O=C(NC1CCCCCC1)c1cncc(C(=O)NC2CCCCCC2)c1,-5%,0.55
C[C@H]1COCCN1C(=O)c1nn(C)c(=O)c2ccccc12,-2%,0.35
O=C(CCc1ccco1)Nc1ccc(-c2nnc3n2CCCCCC3)cc1,-24%,3.75

SMILES,% Inhibition,Z score
COc1ccc(-c2nn(-c3ccccc3C)cc2CN(C)Cc2cnn(C)c2)cc1F,3%,-0.55
CCc1ccc(CNCC2CN(C(=O)OC(C)(C)C)C2)cc1,-1%,0.11
CCN(CC)S(=O)(=O)c1ccc2c(c1)ncn2CCC(=O)Nc1ccc(C)cc1,0%,-0.02
Cc1ccsc1CN(C)c1nnnn1-c1ccccc1,-13%,1.61
Cc1ccsc1CCNc1nnc(C2CCC2)o1,3%,-0.36
CN(C)c1ccccc1N(C)Cc1nc(N)nc(N)n1,27%,-3.47
C[C@H]1CS(=O)(=O)N(c2cccc(C(=O)NCc3ccco3)c2)C1=O,-16%,1.75
Cc1cccc(-c2nc3n(CC(=O)N4CCCCC4)c(C)cc(=O)n3n2)c1,1%,-0.17
Cc1ccc(-c2nc3nc(-c4ccc(F)cc4)cn3nc2-c2ccc(C)cc2)cc1,-5%,0.62
Cc1ccnc(N2CC[C@]3(CCOC3)C2)n1,-12%,1.23
Cc1cnc(-n2cnnc2)c(-c2cccnc2)c1,0%,0.05
C=C(C)CNC(=O)CC(=O)Nc1ccc(OC)cc1OC,-10%,0.98
CC(=O)Nc1ccc(C(=O)N2CCCN(CCn3nc(C)cc3C)CC2)cc1,-12%,1.92
CC(NC1CCc2[nH]ncc2C1)c1cccc(F)c1 (centres undefined),-9%,1.07
CNC(=O)C[C@H](C)N(C)Cc1cncn1C(C)C,-5%,0.63
CC(C)C[C@H](C)OC(=O)N1CCC(NC(=O)N2CCOCC2)CC1,-6%,0.81
COc1ccc(C[C@](C)(O)CNS(=O)(=O)c2cnn(C)c2)cc1,-8%,1.36
CC(C)c1nnc(NC(=O)C[C@@H]2C=CCC2)s1,4%,-0.35
CC(C)CN(CC(=O)Nc1nc(-c2ccccc2)cn1-c1ccc(C(F)(F)F)cc1)C(=O)c1ccco1,-6%,0.52
CN1CCC[C@H](C(=O)Nc2ccccc2C(=O)NCc2ccccn2)C1,19%,-3.21
Cc1c[nH]c(CNc2ccc(C(F)(F)F)nn2)c(C)c1=O,-6%,0.76

# Reference: ChEMBL document CHEMBL4888484, “Replenishing the malaria drug discovery pipeline: Screening and hit evaluation of the MMV Hit Generation Library 1 (HGL1) against asexual blood stage Plasmodium falciparum ,using a nano luciferase reporter read-out” (2022)
